Data: the supplement of paper PMC9446081
Among all 39,000 compounds or so, about 220 (0.56%) showed activity. Some of the results follow.

Tested on: Escherichia coli K-12 BW25113
Assay: relative growth (OD600 normalised to plate interquartile mean) (fraction); higher = less growth inhibition, active = 0.2 or less
Settings: 50 µM; LB; incubation time: overnight (16-24 h)
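Also: static incubation at 37 °C against the wild-type strain, values averaged over two biological replicates.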

Row | SMILES | relative growth
1 | NC[C@@H](CO)Cc1ccsc1 | inactive: 1.02
2 | COc1cccc(C#Cc2ccc3c(c2)O[C@H](CN(C)C(C)=O)[C@H](C)CN([C@H](C)CO)S3(=O)=O)c1 | inactive: 1.03
3 | C[C@H]1CC[C@@H]2N(C1)C[C@@H]1[C@H]([C@@H](O)[C@H](O)[C@]3(O)[C@H]1C[C@@]14O[C@]5(O)[C@@H](C[C@@H](O)[C@@H]31)[C@]4(C)CC[C@@H]5O)[C@]2(C)O | inactive: 0.987
4 | C[C@@H]1CCCCO[C@H](CN(C)Cc2ccc(C(=O)O)cc2)[C@H](C)CN([C@@H](C)CO)C(=O)c2cc(NC(=O)Nc3ccc(C(F)(F)F)cc3)ccc2O1 | inactive: 1.01
5 | C[C@@H]1CN([C@@H](C)CO)C(=O)Cc2cc(NS(C)(=O)=O)ccc2O[C@H]1CN(C)Cc1ccc(C(=O)Nc2ccccc2N)cc1 | inactive: 1
6 | O=C(O)CNC(=O)c1ccc(S(=O)(=O)N2CCOCC2)cc1 | inactive: 0.971
7 | CC(=O)N[C@@H](CC(C)C)C(=O)O | inactive: 0.912
8 | N[C@@H](C(=O)N[C@@H]1C(=O)N2C(C(=O)O)=C(Cl)CC[C@H]12)c1ccccc1 | active: 0.0311
9 | C[C@H]1CN([C@@H](C)CO)C(=O)Cc2cc(NS(=O)(=O)c3cccs3)ccc2O[C@@H]1CN(C)Cc1ccc(Oc2ccccc2)cc1 | inactive: 1
10 | C[C@@H]1CCCCO[C@@H](CN(C)C(=O)Cc2ccccc2)[C@@H](C)CN([C@H](C)CO)C(=O)c2cc(NS(=O)(=O)c3cccs3)ccc2O1 | inactive: 1.01
11 | CCN(CC)CCC/N=C1/N=C(CC(=O)/C=C/c2ccc(O)c(OC)c2)C[C@@H](c2ccc(O)c(OC)c2)S1 | inactive: 1.01
12 | CN(C)C(=O)c1cccc(-c2cccc(-c3nc(C(=O)NC4CCCCC4)cc4c3[C@@H](CCO)N([S@@](=O)C(C)(C)C)C4)c2)c1 | inactive: 1.04
13 | C[C@H](CO)N1C[C@H](C)[C@@H](CN(C)S(=O)(=O)c2ccc(F)cc2)OCCCC[C@H](C)Oc2ccc(NS(=O)(=O)c3cn(C)cn3)cc2C1=O | inactive: 1.03
14 | C[C@@H]1CCCCO[C@@H](CN(C)C(=O)Nc2cccc3ccccc23)[C@H](C)CN([C@H](C)CO)C(=O)c2cc(NS(=O)(=O)c3ccc(F)cc3)ccc2O1 | inactive: 1.04
15 | Cc1noc(C)c1NC(=O)N(C)C[C@H]1Oc2ccc(NC(=O)NC(C)C)cc2C(=O)N([C@H](C)CO)C[C@@H]1C | inactive: 0.973
16 | C[C@H]1CN([C@@H](C)CO)C(=O)Cc2cc(NC(=O)Cn3cnnn3)ccc2O[C@@H]1CN(C)C(=O)Nc1ccc2c(c1)OCO2 | inactive: 0.959
17 | C[C@H](CO)N1C[C@H](C)[C@@H](CN(C)S(=O)(=O)c2ccc(Oc3ccccc3)cc2)OCc2cn(nn2)CCCC1=O | inactive: 1.01
18 | O=C(CN1CCOCC1)NCC[C@@H]1CC[C@@H](NC(=O)Cc2ccccn2)[C@@H](CO)O1 | inactive: 0.999
19 | COc1ccc(S(=O)(=O)Nc2ccc3c(c2)C(=O)N([C@H](C)CO)C[C@H](C)[C@@H](CN(C)C(=O)Nc2ccc(F)cc2)OCCCC[C@H](C)O3)cc1 | inactive: 1.01

Row | SMILES | relative growth
20 | N=C(NO)NCC[C@H](N)C(=O)O | inactive: 1.01
21 | Cc1ccc(S(=O)(=O)Nc2cccc3c2O[C@H](CN(C)Cc2ccc(Oc4ccccc4)cc2)[C@H](C)CN([C@H](C)CO)C3=O)cc1 | inactive: 1.04
22 | C[C@@H]1CN([C@H](C)CO)C(=O)c2cc(NS(=O)(=O)c3ccccc3)ccc2O[C@@H](C)CCCCO[C@H]1CN(C)C(=O)c1ccccc1 | inactive: 0.975
23 | C[C@H](CO)N1C[C@H](C)[C@H](CN(C)C(=O)Nc2cccc3ccccc23)OCCCC[C@H](C)Oc2ccc(NC(=O)Nc3cccc4ccccc34)cc2C1=O | inactive: 1.05
24 | Cc1noc(C)c1NC(=O)N(C)C[C@@H]1Oc2ccc(NS(=O)(=O)c3cn(C)cn3)cc2CC(=O)N([C@H](C)CO)C[C@@H]1C | inactive: 0.987
25 | C[C@H]1CN([C@@H](C)CO)C(=O)c2cccc(NC(=O)Nc3ccc(F)cc3)c2O[C@@H]1CN(C)CC1CCCCC1 | inactive: 0.975
26 | Cn1nnnc1SCC1=C(C(=O)[O-])N2C(=O)C(NC(=O)C(O)c3ccccc3)C2SC1.[Na+] (stereo not drawn) | active: 0.0463
27 | CC(C)NC(=O)N(C)C[C@H]1Oc2c(NS(=O)(=O)c3cn(C)cn3)cccc2C(=O)N([C@H](C)CO)C[C@@H]1C | inactive: 1.01
28 | COC(=O)CC1(N)CCCCC1 | inactive: 1.03
29 | C[C@@H]1CN([C@@H](C)CO)C(=O)Cc2cc(NC(=O)CCC(F)(F)F)ccc2O[C@H]1CN(C)S(=O)(=O)c1ccccc1 | inactive: 0.979
30 | C[C@@H]1COC(=O)[C@H](Cc2ccc(F)cc2)CC=CC[C@@H](CC(=O)N[C@@H](CO)Cc2ccccc2)C(=O)N1 | inactive: 1.02
31 | COc1ccc(S(=O)(=O)N2C[C@@H](O)COC[C@@H]3O[C@@H](CC(=O)NCCCN(C)C)CC[C@H]32)cc1 | inactive: 1
32 | COc1ccc(NC(=O)Nc2ccc3c(c2)CC(=O)N([C@@H](C)CO)C[C@H](C)[C@@H](CN(C)Cc2ccc(C(F)(F)F)cc2)O3)cc1 | inactive: 1.03
33 | Cc1noc(C)c1S(=O)(=O)Nc1ccc2c(c1)C(=O)N([C@H](C)CO)C[C@H](C)[C@H](CN(C)C(=O)Nc1ccc(F)cc1)OCCCC[C@H](C)O2 | inactive: 1.02
34 | O=C(C[C@H]1C=C[C@@H](NS(=O)(=O)c2ccccc2)[C@H](CO)O1)NCc1ccncn1 | inactive: 1
35 | Cc1ccc2nc(-c3ccco3)[nH]c2c1 | inactive: 0.899
36 | CO[C@@H](CN(C)C(=O)c1ccc2c(c1)OCO2)[C@@H](C)CN([C@H](C)CO)S(=O)(=O)c1ccc(C)cc1 | inactive: 0.995
37 | C[C@@H]1CCCCO[C@H](CN(C)Cc2ccc(C(=O)O)cc2)[C@H](C)CN([C@H](C)CO)C(=O)c2cc(NS(=O)(=O)c3ccc(Cl)cc3)ccc2O1 | inactive: 1.01
38 | C[C@H]1CCCCO[C@@H](CN(C)CC2CCCCC2)[C@@H](C)CN([C@@H](C)CO)C(=O)c2cc(NC(=O)CCC(F)(F)F)ccc2O1 | inactive: 0.996
